The antibiotic and cytotoxicity screens of Wong et al. (2023)
Some of the results follow.

Columns and labels:
[1] = test system: HSkMC (human skeletal muscle cells); experiment: cytotoxicity call (relative viability < 0.9); conditions: 10 µM
[2] = test system: HepG2; experiment: cytotoxicity call (relative viability < 0.9); conditions: 10 µM
[3] = test system: S. aureus RN4220; experiment: growth inhibition call (relative growth <= 0.2); conditions: 50 µM

Row | Compound | cytotoxicity call [1] | cytotoxicity call [2] | growth inhibition call [3]
1 | C[C@@H]1CN([C@H](C)CO)C(=O)c2cc(C#CCC3CCCC3)cnc2O[C@H]1CN(C)C(=O)c1cnccn1 | inactive | inactive | inactive
2 | C[C@H]1CCCCO[C@@H](CN(C)CC2CCCCC2)[C@@H](C)CN([C@@H](C)CO)C(=O)c2cc(NS(=O)(=O)c3ccc(Cl)cc3)ccc2O1 | inactive | inactive | inactive
3 | O=C(CN1CCOCC1)NCC[C@@H]1CC[C@@H](NC(=O)Cc2ccccn2)[C@@H](CO)O1 | inactive | inactive | inactive
4 | CCCC#Cc1ccc2c(c1)O[C@H](CN(C)C(=O)c1cnccn1)[C@@H](C)CN([C@@H](C)CO)S2(=O)=O | inactive | inactive | inactive
5 | CC(C)NC(=O)Nc1ccc2c(c1)C(=O)N([C@@H](C)CO)C[C@@H](C)[C@H](CN(C)C(=O)NC1CCCCC1)O2 | inactive | inactive | inactive
6 | COc1ccc(S(=O)(=O)Nc2ccc3c(c2)C(=O)N([C@@H](C)CO)C[C@H](C)[C@@H](CN(C)C(=O)Nc2c(C)noc2C)OCCCC[C@@H](C)O3)cc1 | inactive | inactive | inactive
7 | CC(C)c1noc(CNC(=O)CN)n1 | inactive | inactive | inactive
8 | Cc1noc(C)c1S(=O)(=O)N(C)C[C@H]1Oc2ccc(NC(=O)c3ccncc3)cc2CC(=O)N([C@H](C)CO)C[C@H]1C | inactive | inactive | inactive
9 | C[C@@H]1CN([C@@H](C)CO)C(=O)c2cc(NS(=O)(=O)c3cn(C)cn3)ccc2O[C@@H]1CN(C)Cc1ccc(C(=O)O)cc1 | inactive | inactive | inactive
10 | COCCCCC(=NOCCN)c1ccc(C(F)(F)F)cc1.O=C(O)C=CC(=O)O | inactive | active | inactive
11 | CO[C@@H]1CN(C)C(=O)c2cc(NS(=O)(=O)CC(F)(F)F)ccc2OC[C@H](C)N(Cc2cccnc2)C[C@H]1C | inactive | inactive | inactive
12 | C[C@@H]1CN([C@@H](C)CO)C(=O)c2cc(NC(=O)Cc3ccccc3)ccc2O[C@@H](C)CCCCO[C@H]1CN(C)C(=O)Nc1ccccc1 | inactive | inactive | inactive
13 | O=C(Cc1ccccn1)NCC[C@@H]1CC[C@@H](NC(=O)CN2CCOCC2)[C@H](CO)O1 | inactive | inactive | inactive
14 | CC(C)NC(=O)N(C)C[C@@H]1Oc2ccc(NC(=O)CCCN(C)C)cc2C(=O)N([C@@H](C)CO)C[C@@H]1C | inactive | inactive | inactive
15 | Cc1ccc2ccccc2n1 | inactive | inactive | inactive
16 | C[C@H](CO)N1C[C@H](C)[C@@H](CN(C)S(=O)(=O)c2ccc(Cl)cc2)Oc2ccc(NC(=O)c3ccncc3)cc2CC1=O | inactive | inactive | inactive
17 | COc1ccc(C#Cc2ccc3c(c2)O[C@@H](CN(C)C(C)=O)[C@H](C)CN([C@@H](C)CO)S3(=O)=O)cc1 | inactive | inactive | inactive
18 | CO[C@@H]1CN(C)C(=O)c2ccc(NS(=O)(=O)CC(F)(F)F)cc2OC[C@H](C)N(Cc2nccs2)C[C@@H]1C | inactive | inactive | inactive
19 | C[C@@H](N)C12CC3CC(CC(C3)C1)C2 | inactive | inactive | inactive

Row | Compound | cytotoxicity call [1] | cytotoxicity call [2] | growth inhibition call [3]
20 | C[C@H]1CN([C@@H](C)CO)C(=O)c2cccc(NC(=O)c3nc4ccccc4s3)c2O[C@@H]1CN(C)Cc1ccc(-c2ccccc2)cc1 | inactive | inactive | inactive
21 | Cc1ccc(S(=O)(=O)N(C)C[C@H]2Oc3ccc(NS(=O)(=O)c4ccc(F)cc4)cc3CC(=O)N([C@H](C)CO)C[C@@H]2C)cc1 | inactive | inactive | inactive
22 | Cc1cc(OC(=O)c2c(C)cc(O)cc2O)cc(O)c1C(=O)O | inactive | inactive | inactive
23 | CC(C)NC(=O)N(C)C[C@H]1Oc2ccc(NS(=O)(=O)c3ccccc3)cc2CC(=O)N([C@@H](C)CO)C[C@@H]1C | inactive | inactive | inactive
24 | COc1ccc(-c2cnc3c(c2)C(=O)N([C@H](C)CO)C[C@@H](C)[C@@H](CN(C)C(=O)Cc2ccccn2)O3)cc1 | inactive | inactive | inactive
25 | C[C@@H]1CN([C@H](C)CO)C(=O)CCCn2nncc2CO[C@@H]1CN(C)Cc1ccc(C(=O)Nc2ccccc2N)cc1 | inactive | inactive | inactive
26 | C[C@H](CO)N1C[C@H](C)[C@H](CN(C)S(=O)(=O)c2cn(C)cn2)Oc2ccc(NC(=O)CCC(F)(F)F)cc2CC1=O | inactive | inactive | inactive
27 | CCN(CC)CCNC(=O)c1ccc(NC(C)=O)cc1.Cl | inactive | inactive | inactive
28 | COC(=O)c1c2oc(c1C(=O)OC)C(=O)N[C@H](Cc1ccccc1)Cn1cc(nn1)[C@@H](Cc1ccccc1)NC(=O)N[C@@H](COC(=O)NCCCCCC(=O)NO)CC2 | inactive | inactive | inactive
29 | CN(C)CC#Cc1ccc([C@@H]2[C@H](CO)N3C(=O)CN(C(=O)c4cccnc4)C[C@@H]23)cc1 | inactive | inactive | inactive
30 | COCCOC(=O)N1C(=O)[C@@]2(c3cc(C#CCNC(N)=O)ccc31)[C@H](c1ccc(OCCO)cc1)N1[C@H](c3ccccc3)[C@H](c3ccccc3)OC(=O)[C@H]1[C@@H]2C(=O)N1CCc2cc(OC)c(OC)cc2C1 | inactive | inactive | inactive
31 | N=C(NO)c1ccccc1N | inactive | inactive | inactive
32 | C[C@@H]1CCCCO[C@@H](CN(C)CC2CC2)[C@@H](C)CN([C@H](C)CO)C(=O)c2cc(NC(=O)CCCCCC(=O)Nc3ccccc3N)ccc2O1 | inactive | inactive | inactive
33 | C=CCC[C@@H](Cc1ccc(F)cc1)C(=O)OC[C@H](Cc1c[nH]c2ccccc12)NC(=O)[C@H](CC=C)CC(=O)N(CCO)Cc1ccccc1 | inactive | inactive | inactive
34 | CCCNC(=O)N1C[C@H](O)COC[C@@H]2O[C@@H](CC(=O)NCc3ccncn3)CC[C@H]21 | inactive | inactive | inactive
35 | CC[C@H](C)C[C@H](C)CCCCCCCCC(=O)N[C@H]1C[C@@H](O)[C@@H](NCCN)NC(=O)[C@@H]2[C@@H](O)CCN2C(=O)[C@H]([C@H](O)CCN)NC(=O)[C@H]([C@H](O)[C@@H](O)c2ccc(O)cc2)NC(=O)[C@@H]2C[C@@H](O)CN2C(=O)[C@H]([C@@H](C)O)NC1=O | inactive | inactive | inactive
36 | C[C@H](CO)N1C[C@H](C)[C@H](CN(C)Cc2ccncc2)Oc2c(NC(=O)Nc3cccc4ccccc34)cccc2C1=O | inactive | inactive | inactive
37 | Cc1ccc(CCSc2ccc(Cl)c(Cl)c2)cn1 | inactive | active | inactive
38 | C[C@H]1CN([C@@H](C)CO)C(=O)c2cc(NC(=O)CCN3CCOCC3)ccc2O[C@@H]1CN(C)S(C)(=O)=O | inactive | inactive | inactive

Row | Compound | cytotoxicity call [1] | cytotoxicity call [2] | growth inhibition call [3]
39 | C[C@@H]1CCCCO[C@@H](CN(C)Cc2ccncc2)[C@H](C)CN([C@@H](C)CO)C(=O)c2cc(NC(=O)Nc3ccc4c(c3)OCO4)ccc2O1 | inactive | inactive | inactive
40 | CO[C@H](CN(C)S(=O)(=O)c1ccc(C)cc1)[C@H](C)CN([C@H](C)CO)S(=O)(=O)c1cccc(Cl)c1 | inactive | inactive | inactive
41 | NNC(=O)c1ccc(C(=O)NO)cc1 | inactive | inactive | inactive
42 | COc1ccc(S(=O)(=O)N2CCO[C@@H]2CNC(=O)C(=O)NCc2ccncc2)cc1 | inactive | inactive | inactive
43 | COCC(=O)N1C[C@@H]2OCCN(c3ncccn3)[C@H]2C1 | inactive | inactive | inactive
44 | O=C(Nc1ccc(C(F)(F)F)cc1)Nc1ccc2c(c1)[C@H]1C[C@@H](CC(=O)N3CCc4ccccc4C3)O[C@@H](CO)[C@H]1O2 | inactive | inactive | inactive
45 | C[C@H]1CN([C@@H](C)CO)C(=O)Cc2cc(NC(=O)Nc3ccc(F)cc3)ccc2O[C@@H]1CN(C)Cc1ccc(Cl)c(Cl)c1 | active | active | inactive
46 | COc1ccc(CN(C)C[C@H]2Oc3c(NC(=O)c4ccc(-c5nccs5)cc4)cccc3C(=O)N([C@@H](C)CO)C[C@H]2C)cc1 | inactive | inactive | inactive
47 | C[C@H]1CN([C@@H](C)CO)C(=O)Cc2cc(NC(=O)Nc3ccccc3)ccc2O[C@@H]1CN(C)Cc1ccc(C(F)(F)F)cc1 | active | active | inactive
48 | C[C@@H]1CN([C@H](C)CO)S(=O)(=O)c2ccc(C#CCN(C)C)cc2O[C@H]1CN(C)C(=O)CN(C)C | inactive | inactive | inactive
49 | COc1ccc(S(=O)(=O)Nc2ccc3c(c2)C(=O)N([C@@H](C)CO)C[C@H](C)[C@@H](CN(C)C(=O)Nc2c(C)noc2C)O3)cc1 | inactive | inactive | inactive
50 | CC(C)NC(=O)N(C)C[C@H]1Oc2ccc(NS(=O)(=O)c3cn(C)cn3)cc2CC(=O)N([C@H](C)CO)C[C@@H]1C | inactive | inactive | inactive
51 | C[C@@H]1CN([C@@H](C)CO)S(=O)(=O)c2ccc(C#CCN(C)C)cc2O[C@@H]1CN(C)C(=O)C1CCCCC1 | inactive | inactive | inactive
52 | C[C@H]1CN([C@@H](C)CO)C(=O)CCCn2cc(nn2)CO[C@@H]1CN(C)C(=O)Nc1ccccc1C(F)(F)F | inactive | inactive | inactive
53 | Nc1ccn([C@@H]2O[C@H](CO)[C@@H](O)C2(F)F)c(=O)n1 | inactive | inactive | inactive
54 | C[C@@H]1CCCCO[C@@H](CN(C)C(=O)CCCN(C)C)[C@H](C)CN([C@@H](C)CO)C(=O)c2cc(NS(C)(=O)=O)ccc2O1 | inactive | inactive | inactive
55 | C[C@@H]1CN([C@@H](C)CO)C(=O)Cc2cc(NC(=O)C3CCCCC3)ccc2O[C@H]1CN(C)Cc1ccc(C(=O)Nc2ccccc2N)cc1 | inactive | inactive | inactive
56 | C[C@H]1CN([C@@H](C)CO)C(=O)c2cc(C#CC3(O)CCCC3)cnc2O[C@@H]1CN(C)S(C)(=O)=O | inactive | inactive | inactive
